The whole screen tested about 360,000 compounds, of which about 16,000 (4.4%) were called active. Inconclusive means that the source gave no clear call. Such entries were picked first, then a sample of the others. Calls follow the shape of the dose curve; as a rule, active = well fitted inhibition curve with a large enough effect; inconclusive = small, poorly fitted or top-dose-only effect; inactive = no such curve, though single readings can be large or run the other way. Potencies of inconclusive entries are doubtful fits and often do not repeat.
Molecular target: Bromodomain adjacent to zinc finger domain protein 2B (Homo sapiens) (UniProt Q9UIF8)
Test: qHTS Assay for Inhibitors of BAZ2B; also: nearly all actives have a fitted effect of over 60% in size
Details: AlphaScreen BAZ2B-H3K14Ac peptide displacement; activity change, negative = inhibition: at 114 µM (top of the series)
Summary of the method: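 In this displacement format the biotinylated H3(5-23) peptide acetylated at Lys14 serves as ligand at 50 nM, with BAZ2B at 50 nM in PBS pH 7.4 containing 0.01% Tween-20. Donor and acceptor beads are 10 ug/mL final.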
% is scaled to controls: 0 for no effect and ±100 for the full control effect; potency is read from the fitted curve at half-maximal effect; tags tell the direction and shape of the fitted curve.

UniProt Q9UIF8, sequence (Q9UIF8 whole entry, looked up, the tested form may be a part): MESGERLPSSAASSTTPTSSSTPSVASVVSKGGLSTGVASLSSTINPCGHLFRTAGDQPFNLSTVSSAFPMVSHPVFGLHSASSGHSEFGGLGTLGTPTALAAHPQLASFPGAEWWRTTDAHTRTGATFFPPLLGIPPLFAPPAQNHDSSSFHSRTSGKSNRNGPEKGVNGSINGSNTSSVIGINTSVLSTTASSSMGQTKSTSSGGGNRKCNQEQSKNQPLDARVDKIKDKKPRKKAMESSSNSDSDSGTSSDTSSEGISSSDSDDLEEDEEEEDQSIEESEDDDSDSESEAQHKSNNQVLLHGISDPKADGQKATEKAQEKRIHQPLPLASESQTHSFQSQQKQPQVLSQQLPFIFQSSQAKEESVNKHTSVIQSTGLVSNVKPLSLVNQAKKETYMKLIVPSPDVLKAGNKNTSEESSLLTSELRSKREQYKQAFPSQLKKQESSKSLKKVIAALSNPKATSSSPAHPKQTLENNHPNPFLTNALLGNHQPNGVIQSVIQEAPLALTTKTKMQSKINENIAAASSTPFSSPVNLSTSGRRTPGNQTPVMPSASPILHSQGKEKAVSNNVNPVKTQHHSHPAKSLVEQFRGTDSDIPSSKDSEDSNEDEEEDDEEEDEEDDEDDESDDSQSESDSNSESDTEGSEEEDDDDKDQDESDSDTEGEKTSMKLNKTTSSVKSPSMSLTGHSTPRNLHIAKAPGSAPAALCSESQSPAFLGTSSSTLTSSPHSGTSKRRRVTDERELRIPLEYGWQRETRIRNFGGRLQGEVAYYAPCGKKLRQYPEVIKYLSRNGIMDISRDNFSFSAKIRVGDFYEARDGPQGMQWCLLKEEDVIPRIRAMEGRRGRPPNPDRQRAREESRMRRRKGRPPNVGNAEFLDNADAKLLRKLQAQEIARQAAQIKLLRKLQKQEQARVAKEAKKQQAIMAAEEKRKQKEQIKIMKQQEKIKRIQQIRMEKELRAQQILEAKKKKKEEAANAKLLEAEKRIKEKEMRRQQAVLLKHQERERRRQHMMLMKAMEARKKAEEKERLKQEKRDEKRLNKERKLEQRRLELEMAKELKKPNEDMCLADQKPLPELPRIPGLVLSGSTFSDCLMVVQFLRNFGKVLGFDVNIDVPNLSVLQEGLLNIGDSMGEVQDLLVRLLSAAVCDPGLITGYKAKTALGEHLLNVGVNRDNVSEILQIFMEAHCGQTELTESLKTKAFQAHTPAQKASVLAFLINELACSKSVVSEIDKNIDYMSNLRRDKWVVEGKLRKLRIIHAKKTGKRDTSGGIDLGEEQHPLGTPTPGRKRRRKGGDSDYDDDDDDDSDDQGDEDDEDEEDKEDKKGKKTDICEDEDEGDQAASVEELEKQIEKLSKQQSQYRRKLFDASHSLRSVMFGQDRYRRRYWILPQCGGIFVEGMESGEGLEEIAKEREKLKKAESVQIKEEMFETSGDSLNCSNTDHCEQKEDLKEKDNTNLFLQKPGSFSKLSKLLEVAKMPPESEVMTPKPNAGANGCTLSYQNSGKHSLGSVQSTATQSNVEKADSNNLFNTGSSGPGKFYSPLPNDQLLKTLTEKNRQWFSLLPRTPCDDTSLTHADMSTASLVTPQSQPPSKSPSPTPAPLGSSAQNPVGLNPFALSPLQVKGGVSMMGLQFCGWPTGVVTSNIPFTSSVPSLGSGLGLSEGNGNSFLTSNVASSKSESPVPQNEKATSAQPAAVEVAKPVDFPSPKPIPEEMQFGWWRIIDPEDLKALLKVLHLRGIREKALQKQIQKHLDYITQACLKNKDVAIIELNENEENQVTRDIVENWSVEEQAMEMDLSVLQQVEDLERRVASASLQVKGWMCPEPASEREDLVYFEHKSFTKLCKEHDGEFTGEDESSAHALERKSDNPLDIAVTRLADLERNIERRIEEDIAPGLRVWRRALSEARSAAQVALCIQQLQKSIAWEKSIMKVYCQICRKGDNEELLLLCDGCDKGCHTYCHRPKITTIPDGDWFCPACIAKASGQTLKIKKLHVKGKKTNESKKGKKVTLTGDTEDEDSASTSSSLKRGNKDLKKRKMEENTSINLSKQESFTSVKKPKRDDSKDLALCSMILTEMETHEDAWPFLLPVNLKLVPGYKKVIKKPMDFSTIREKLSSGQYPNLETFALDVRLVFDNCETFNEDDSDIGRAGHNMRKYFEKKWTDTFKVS

SMILES	Potency	activity change, negative = inhibition
O=S(=O)(Nc1cccc(-c2ccc(N3CCCCCC3)nn2)c1)c1cccc(F)c1	inactive	–
C/C(=N/Nc1ccc([N+](=O)[O-])cc1)c1ccc(C)cc1C	–	inactive: -21.9%
O=C(Cn1ncc2c3ccccc3n(Cc3cccc(Cl)c3)c2c1=O)NC1CCCCCC1	inconclusive: 70.8 µM [inhibitor, partial curve]	–
CCc1ccc(NC(=O)CSC2=Nc3ccccc3C3=NC(CC(=O)NCc4ccccc4)C(=O)N23)cc1 (stereo not drawn)	inconclusive: 79.4 µM [inhibitor, single point]	–
CC(=O)N1c2ccc(S(=O)(=O)N3CCCC(C(=O)Nc4cccc(Cl)c4)C3)cc2CC1C (stereo not drawn)	inconclusive: 79.4 µM [inhibitor, single point]	–
S=C(NCc1ccc(Cl)c(Cl)c1)NCc1ccco1	inconclusive: 89.1 µM [inhibitor, single point]	–
CSc1cccc(-n2c(C)cc(C(N)=O)c2C)c1	inconclusive: 79.4 µM [inhibitor, single point]	–
Nc1nc(-c2ccc(NC(=O)c3ccco3)cc2)cs1	–	inactive: -18.7%
CCCC(c1nnnn1Cc1ccc(F)cc1)N1CCN(C2CCCCC2)CC1 (stereo not drawn)	inconclusive: 89.1 µM [inhibitor, single point]	–
O=C(Cn1nnc(-c2ccccc2F)n1)NCc1ccco1	inconclusive: 50.1 µM [inhibitor, partial curve]	–
Cc1c(C(=O)N2CCN(c3cccc(Cl)c3)CC2)cccc1[N+](=O)[O-]	inconclusive: 50.1 µM [inhibitor, partial curve]	–
CN(C)CCNC(=O)c1coc(=O)c(Br)c1	inconclusive: 89.1 µM [inhibitor, single point]	–
CCn1c(/C=C2\C(=O)N(C)c3ccccc32)nc2ccccc2c1=O	active: 56.2 µM	–
O=S(=O)(NCC(c1cccnc1)N1CCN(c2ccccc2)CC1)c1cccs1 (stereo not drawn)	inconclusive: 50.1 µM [inhibitor, single point]	–
c1ccc(C(c2nnnn2C2CCCC2)N2CCCCCC2)nc1 (stereo not drawn)	active: 50.1 µM	–
O=[N+]([O-])c1ccc(CN2CCN(c3ccc4ccccc4n3)CC2)cc1	inconclusive: 79.4 µM [inhibitor, partial curve]	–
CC(=O)Nc1sc(/C(C#N)=C/c2ccc(Cl)c(Cl)c2)nc1-c1ccc(C)cc1	–	inactive: 37.9%
CCOc1ccc(NC2CCCCC2NS(=O)(=O)c2ccccc2)cc1 (stereo not drawn)	active: 44.7 µM	–
O=C(CN1CCC(NC(=O)C2CC2)CC1)Nc1cccc(F)c1	–	inactive: 2.35%
COc1ccccc1Nc1nc(N)nc(CSc2nncn2C)n1	inconclusive: 39.8 µM [inhibitor, single point]	–
Cc1ccc(N(Cc2cc(=O)[nH]c3ccccc23)C(=O)c2ccco2)cc1	inconclusive: 89.1 µM [inhibitor, single point]	–
CN(Cc1nccn1C)C(=O)CC1C(=O)NCCN1Cc1ccc(F)cc1Cl (stereo not drawn)	–	inactive: -17.4%
CCc1ccc(OCC2c3cc(OC)c(OC)cc3CCN2C(=O)COc2ccccc2)cc1 (stereo not drawn)	inconclusive: 25.1 µM [inhibitor, single point]	–
CCOC(=O)C1=C(C)N=c2s/c(=C/c3ccc(OCC(=O)O)cc3)c(=O)n2C1c1ccc(SC)cc1 (stereo not drawn)	active: 35.5 µM	–
COc1cc(CNC2CCCCCC2)cc(OC)c1OC	inconclusive: 89.1 µM [inhibitor, single point]	–
COc1cc(/C=C2\C(=N)N3N=C(S(C)(=O)=O)SC3=NC2=O)ccc1OS(=O)(=O)c1ccc(C)cc1	active: 50.1 µM	–
COc1ccc(-n2nnnc2SCC(=O)NCCc2ccccc2)cc1OC	inconclusive: 56.2 µM [inhibitor, partial curve]	–

SMILES	Potency	activity change, negative = inhibition
CCOc1cccc(=O)c2c(C)n(CC3CCCO3)c(C)c12 (stereo not drawn)	inconclusive: 89.1 µM [inhibitor, single point]	–
COc1ccc(OC)c(CCNC(=O)C2CCN(c3nnc(-n4cccc4)s3)CC2)c1	inconclusive: 79.4 µM [inhibitor, single point]	–
O=C(O)c1ccccc1C(=O)c1ccc(-c2ccccc2)cc1	–	inactive: 3.06%
Cc1ccc2[nH]c(CSc3nnc(NC(=O)c4ccc(Cl)cc4)s3)cc(=O)c2c1	–	inactive: 7.71%
COc1ccc(C2=NN(C(=O)CSc3ncccn3)C(c3ccc(C)cc3)C2)cc1 (stereo not drawn)	inconclusive: 70.8 µM [inhibitor, single point]	–
CN1CCN(CC(=O)Nc2ccc(OCc3ccccc3)cc2)CC1	inconclusive: 89.1 µM [inhibitor, single point]	–
Cc1cc2ccccn2c1C(=O)c1nc(NCc2ccco2)ncc1Cl	inconclusive: 39.8 µM [inhibitor, partial curve]	–
O=C(CSCc1cc(=O)c2cc(F)ccc2[nH]1)Nc1ccccc1Cl	–	inactive: 4.6%
Cc1ccc(NC(=O)[C@@H](c2ccccc2)N2Cc3ccccc3C2=O)cc1	–	inactive: -25.4%
CC(C)(C)OC(=O)N1CCC(c2c(C(=O)NCCN3CCC(Cc4ccccc4)CC3)cnn2-c2ccc(F)cc2)CC1	–	inactive: -4.11% [at 57.1 µM]
O=C(O)CCCC(=O)N1N=C(c2ccccc2)CC1c1ccc2c(c1)OCO2 (stereo not drawn)	inconclusive: 89.1 µM [inhibitor, single point]	–
CCOC(=O)Nc1ccc(S(=O)(=O)Nn2cnnc2)cc1	inconclusive: 79.4 µM [inhibitor, single point]	–
COc1cc(/C=C(\C#N)c2nc3ccccc3o2)ccc1O	active: 44.7 µM	–
CCN(CC)C(=O)CN1CCN(c2ncccn2)CC1	active: 25.1 µM	–
O=C(c1ccc(Cl)cc1)C1CCCN(Cc2cccn2-c2ccccn2)C1 (stereo not drawn)	inconclusive: 89.1 µM [inhibitor, single point]	–
CCOc1cccc2c1OC(c1cc(OC)c(OC)c(OC)c1)N1N=C(c3ccc(C)o3)CC21 (stereo not drawn)	inconclusive: 50.1 µM [inhibitor, partial curve]	–
CCCCOC(=O)c1ccc(NC(=O)c2nn(C)cc2Br)cc1	–	inactive: 8.01%
Cc1cccc2c1N(CCOc1ccc(C(C)(C)C)cc1)C(=O)C2=O	inconclusive: 8.91 µM [inhibitor, full curve]	–
COc1ccc(OC)c(-n2c(C)ccc2-c2ccc(S(C)(=O)=O)cc2)c1	active: 44.7 µM	–
CC(C)c1ccc(Nc2c([N+](=O)[O-])c(=O)n(C)c3ccccc23)cc1	inconclusive: 39.8 µM [inhibitor, partial curve]	–
O=C(Nc1c2c(nc3c1CCC3)CCCC2)c1ccccn1	inconclusive: 44.7 µM [inhibitor, partial curve]	–
CC(C)(C)C1CCC(C(=O)Nc2ccc(N3CCOCC3)cc2N2CCOCC2)CC1 (stereo not drawn)	inconclusive: 39.8 µM [inhibitor, full curve]	–
Cn1c(=O)c2cc(S(=O)(=O)NC(C(=O)NC3CCCCC3)c3ccccc3)ccc2n(C)c1=O (stereo not drawn)	–	inactive: 10.8%
NC(=O)CC(NC(=O)Cc1ccc(Br)cc1)c1ccc(N2CCc3ccccc3C2)c([N+](=O)[O-])c1 (stereo not drawn)	inconclusive: 89.1 µM [inhibitor, single point]	–
COc1ccc(C(=O)Cn2c(=O)c(-c3cc(C)ccc3NC(C)=O)nc3ccccc32)cc1	–	inactive: -14.3%
C=CCN=c1scc(-c2ccc3c(c2)NC(=O)CO3)n1/N=C(\C)c1ccccn1	inconclusive: 7.94 µM [inhibitor, full curve]	–
